± gives the standard deviation of the averaged measurements. The list shows a part of the results.
system: PfAP2-G AP2 domain (GST-tagged); assay: gcPBM binding intensity (ln(normalized median fluorescence intensity)); higher = stronger DNA binding
Procedure, shortened: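 GST-tagged P. falciparum DNA-binding domains, expressed in E. coli (about 25 μg on average), were applied for 1 h to an Agilent 4 × 180k array of primer-extended double-stranded 36-bp intergenic genomic probes plus negative controls. The binding buffer was 1× PBS with 1% milk, 0.2 mg/ml BSA, 0.5% salmon testes DNA and 0.03% Triton X-100. Bound protein was detected with Alexa488 anti-GST antibody and scanned at 488 nm. Binding intensity is the highest Masliner-normalised natural-log median intensity across replicate spots of either probe orientation.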

Row | Sequence | gcPBM binding intensity (ln)
1 | GATATATAGGTATTTACACACAATGTGAGATCTATA [CACACA_site7575] | 10.05 ± 0.092
2 | AAAGACTTTTTATGAGCACACACATATATTATGGAG [CACACA_site8254] | 10.16 ± 0.049
3 | TTTTCAAAATGTTGTACACACAAAAAAAAAAAAAAA [CACACA_site1550] | 11.5 ± 1
4 | GATGATACACAGGTGTTGCACTTAAATGCAGTTCTT [GTGCAC_site9627] | 10.17 ± 0.071
5 | ATTAAAATAGAAAAAAAAAAAAAAAAAAAAAAAAAA [CACACA_negctrl_site1117] | 9.51 ± 0.071
6 | TATGGGGAACTATAATGTACGTATTCCTCATATATA [XGTACX_site338] | 11.4 ± 0.95
7 | TATTTTTTAAGTGAACATTTGTTATTATATTCTTAT [GTGCAC_negctrl_site172] | 9.935 ± 0.007
8 | TATATCTGTATCATTACACACATGTATACTTATTTG [CACACA_site6134] | 10.3 ± 0.24
9 | TTGATATACTATGACACATGCAAATAAAACATTATA [TGCATGCA_site535] | 10.12 ± 0.099
10 | TAATCATTTTTAAATTGTACAATTTATATAATAAGT [XGTACX_site6081] | 10.8 ± 0.4
11 | TTGTATTGTATATGCACACATAGAACACTTTTTTTT [CACACA_site4133] | 10.2 ± 0.35
12 | TAAATTTTGTTTAGCACACACACATACATACATACA [CACACA_site3155] | 10.6 ± 0.26
13 | ATATATAAATATATATGTACACACATATACATGTTG [XGTACX_site6653] | 11.3 ± 0.66
14 | AATTATTCTATATATTGTACATGTTTGTTTTTTTTT [XGTACX_site3130] | 10.9 ± 0.42
15 | TGTTTAATCACATGTTTGCACTTTCCTTTTGTAAAT [GTGCAC_site9893] | 10.2 ± 0.11
16 | TCTTAAAATCGGAAATGAAATAAAGTTTACAATATG [TGCATGCA_negctrl_site553] | 9.87 ± 0.071
17 | TGATTCTGTCATGGTGCACACCAGAACCATTATAAA [CACACA_site1965] | 10.5 ± 0.46
18 | AATGAACACCTAAAATGTACGTACAAATATATTTTA [XGTACX_site7067] | 11.6 ± 0.88
19 | AATCTGATCTTTTAAAGTACACAAAAAAAAAAAAAA [XGTACX_site115] | 11.4 ± 1.1
20 | AGGTTATAAATAAATACACACATACAAAAATATGAC [CACACA_site4773] | 10.04 ± 0.064
21 | AAAAAAAAAAAAAAAAGTACGTATCAAAGCATCAAA [XGTACX_site880] | 11.3 ± 0.86
22 | CATATATATATATGTACACACATTAATAAAAAAAAA [CACACA_site3230] | 11.4 ± 0.86

Row | Sequence | gcPBM binding intensity (ln)
23 | GTTTAACTGTTTTATACACACAATGTATACAATAAA [CACACA_site2959] | 10.2 ± 0.28
24 | ATAACCTAATAATACACACACATGAATATATAGAAT [CACACA_site963] | 9.905 ± 0.007
25 | TTTAAAATTTTTTTTTTTTTTTTTTTTTTTTTTTAT [TGCATGCA_negctrl_site213] | 9.24 ± 0.19
26 | ATATAAATATGTTCTGCACACAAATAAGTGTTTGAA [CACACA_site9291] | 10.1 ± 0.18
27 | ATGTTTAATTTTTTTTTGTCCCTATAGAAGTGTCAA [CACACA_negctrl_site1103] | 10.5 ± 0.35
28 | AATGAATAAATAAACACACACACATATATAAATATG [CACACA_site6160] | 10.05 ± 0.014
29 | AAAACAAACAGACACACACACATATATATATATATA [CACACA_site3655] | 10.2 ± 0.59
30 | TTTGAGTGCACATACACACAGACATACATTTAAATA [CACACA_site3403] | 10.6 ± 0.56
31 | TATTTATTAATATGTACACACATCAACCATATTAAC [CACACA_site7001] | 11.5 ± 0.93
32 | TAATATATATTATTATGTACATATATTGATTCCTTG [XGTACX_site6830] | 11.2 ± 0.65
33 | TTGTTTTTATAAATATTATTACAATGAAAAAAAAAA [TGCATGCA_negctrl_site185] | 9.82 ± 0.14
34 | CCAAAATACATTAAACGTACATGTCCTAATAAGATA [XGTACX_site21] | 11.3 ± 0.98
35 | TTCTTATATATATACACACACAAAATATCTACAATG [CACACA_site736] | 10.1 ± 0.16
36 | ATATTATATTATATAACACACATTTTTCATAACACT [CACACA_site407] | 10 ± 0.028
37 | ATAATTTAATACTAGTGTACAGAAAAAAAAAAAAAA [XGTACX_site6756] | 11.3 ± 1.1
38 | TTAAATTAAAACAAATGTACAAAGTGCATATTTTTT [XGTACX_site8143] | 10.5 ± 0.46
39 | ATTTTTTTTTCTTTCGCACACGTGAAAGAATTTCTA [CACACA_site2052] | 10.2 ± 0.22
40 | TGAAGGTCAGTTCACAGTACCCAGTAACTCTACGGA [XGTACX_site2554] | 10.8 ± 0.46
41 | TATATTTTTTTAAAAAGTACTTTGTATATATATATA [XGTACX_site1300] | 11.1 ± 0.83
42 | TTGTTGTTATTTAAAACACACATCAATCATCTTAAC [CACACA_site1142] | 10 ± 0.27
43 | ACATATATATATAAATATATATATATATAAATATAT [CACACA_negctrl_site895] | 9.425 ± 0.078
44 | GTTGAACATAGATGCACACACATAAAATAAAAAAAA [CACACA_site5353] | 10.2 ± 0.4

Row | Sequence | gcPBM binding intensity (ln)
45 | TGTTTAAATTTTTTGTTTTTTTTTTTATAAAGCAAA [TGCATGCA_negctrl_site313] | 9.62 ± 0.099
46 | TTACGCATACTAATTACACACAAATAGATGAATATA [CACACA_site1338] | 10 ± 0.13
47 | ATAAAAAAATAAATTAGTACATATATATATATATAT [XGTACX_site6971] | 11.1 ± 0.83
48 | AATTATTTTATGTGAGGTACACCACACATGAAGGGG [XGTACX_site8450] | 11.5 ± 0.98
49 | TAAATATATTCAATCACACACATTCGTTTTTTTTTT [CACACA_site234] | 9.74 ± 0.17
50 | AAAATTATAAATCTTGCACACAAAAAAAATAATAAA [CACACA_site8771] | 9.93 ± 0.014
51 | TTTTCATTTATGTATATATTTATTTTGATTTAATGT [GTGCAC_negctrl_site607] | 9.69 ± 0.042
52 | AAATATTCATAGTATACACACATTTATATATAATCA [CACACA_site771] | 10.05 ± 0.078
53 | TGAAAGTTCAATAATTGTACATGTGGAAATTCATAC [XGTACX_site1378] | 10.9 ± 0.59
54 | TATTGTTATGTCGTTATTAACTTTCTTTAATTAATT [CACACA_negctrl_site174] | 10.1 ± 0.14
55 | TTTTTTAAATAATATTGTACAAAAAATGTATAAATA [XGTACX_site3010] | 11 ± 0.57
56 | TTAGGTTTATACACTACACACATTATTCATAAAAAA [CACACA_site871] | 10.2 ± 0.26
57 | AAAAAACACAGACACACACACATATACATACATACA [CACACA_site2666] | 10.4 ± 0.3
58 | ATATTTCGTCTAAAAAGTACACAACAATAAAAAGTA [XGTACX_site6668] | 11.6 ± 0.92
59 | AAGTGTATACAGAAGAGTACAAACAATTTTTTTCTT [XGTACX_site7387] | 11.3 ± 0.94
60 | AACCAATTAGAAGGATCCAGAACTTATTTGTTTTTA [CACACA_negctrl_site1744] | 9.65 ± 0.2
61 | TATTTATGTATATGCTGTACGCATTTGTGAAACATA [XGTACX_site4688] | 11.5 ± 1
62 | TACAAGCCCAATTCAAGTACATATATATATATATAT [XGTACX_site5569] | 11 ± 0.88
63 | AGTTTGTCAATCAACACACACCTATTTATTATATAT [CACACA_site6030] | 10.06 ± 0.071
64 | TTATATATATATATATATATTTACATAATAATATGT [GTGCAC_negctrl_site388] | 9.79 ± 0.071
65 | TAAAAAAAGGTTATTGGTACACACATATGTATATAT [XGTACX_site1029] | 11.1 ± 0.69
66 | ATTCATTCATATGTTACACACACACGCCCACATAAA [CACACA_site7513] | 10.7 ± 0.5

Row | Sequence | gcPBM binding intensity (ln)
67 | AAAGATATGAAATATACACACTTCTTTGGTATTATT [CACACA_site6352] | 9.81 ± 0.18
68 | TAAACTTTCCAGTGTTGTACATAATAATTATTATAT [XGTACX_site8896] | 11.1 ± 0.64
69 | TTATATAATAAAAATTGTACATATTATATATATATT [XGTACX_site3427] | 11.1 ± 0.67
70 | GTTGCGTATATATACACACATACATATATATATATA [CACACA_site1607] | 10.2 ± 0.27
71 | TAATATTCAATTATACGTACACATATATATATATAT [XGTACX_site4245] | 11.8 ± 1.1
72 | TATGAAAGAAATAGTACACACATAAACATTTGTAAA [CACACA_site2783] | 11.3 ± 1
73 | TCATATATCATAACAGTGCAAAAAAAAAAAAATTAT | 10 ± 0.3
74 | GTTAGAGGGAAAAAGAGTACATATATGTGGATAATT [XGTACX_site2064] | 11.4 ± 0.75
75 | AAAAAAAAAAAAGAAACACACATATATATATATATA [CACACA_site140] | 9.74 ± 0.24
76 | GTTTGATTAAACTTGACACACATATATATAAATATA [CACACA_site1784] | 10.1 ± 0.17
77 | AGAAAATATACAAAACGTACTTATATATTATATCTA [XGTACX_site3104] | 10.9 ± 0.69
78 | AAATGTTATAACTCTTGAAAAAACAAAATATCATCA [CACACA_negctrl_site1156] | 9.77 ± 0.11
79 | GAGTTTTTTTAATGATGTACATTTTAAAAATAAACG [XGTACX_site1036] | 11.1 ± 0.69
80 | AAAATAATATATGTATGTACATATACACATATAGAA [XGTACX_site2218] | 11.1 ± 0.59
81 | ACTTTACAATATATATGTACATATTAATAAACATAT [XGTACX_site3689] | 11.2 ± 0.71
82 | AAATATTACGGAATAAAGAGCTTTTAAATAATTTTA [CACACA_negctrl_site1700] | 9.85 ± 0.17
83 | TTTATTATACAAAATTGTACTTTATAATTTTATGTA [XGTACX_site5846] | 11 ± 0.79
84 | TATTTTATACATATTTTACACACTAATATATACATA [CACACA_site7998] | 10.1 ± 0.18
85 | AAATATAAACGGCACACACACAAAAAAAGAAAAAAA [CACACA_site649] | 10.2 ± 0.29
86 | AGAAACCTTGTTAGTTAGCATATATATATATATATA [CACACA_negctrl_site372] | 10 ± 0.4
87 | AATATGAAAAGATGAACAACAAAATGGAGAACAATA [GTGCAC_negctrl_site612] | 10.4 ± 0.34
88 | TTTATAAAAATGAACACACACATATATATATATATA [CACACA_site3493] | 10.4 ± 0.79
